# “And” between values parts separate entries of the source, which are not always exact repeats. Equal entries are not always repeated. Inconclusive means that the source gave no clear call. Such entries were picked first, then a sample of the others. For part of these data: Where the call is inconclusive, the potency comes from a doubtful curve fit. More than one record can exist for a structure, and the calls need not agree. The source made the active and inactive calls. Calls come from the whole dose curve; as a rule, active = well fitted curve in the direction sought with a large enough effect; inconclusive = small, poorly fitted or top-dose-only effect, or another doubt; inactive = no such curve, though single readings can be large; an effect the other way counts as inactive or inconclusive.
# What was measured:
# [1] = Viability qHTS for spleen associated tyrosine kinase inhibitor (SYKi) naive MV4-11 cells (AID 1963823); note: nearly all actives have a fitted effect of over 40% in size
# In short: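 Cells: MV4-11, SYK inhibitor naive, 500 per well. Treatment: library compounds, 72 hr, 37 C, 5% CO2. Read-out: CellTiter-Glo luminescence after 10 min RT.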
# [2] = Viability qHTS for spleen associated tyrosine kinase inhibitor (SYKi) drug resistant MV4-11 cells (AID 1963824); note: nearly all actives have a fitted effect of over 35% in size
# In short: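 CellTiter-Glo luminescence, read 10 min after reagent addition, reports viability after a 72 hr compound exposure. Cells are an MV4-11 line made resistant to SYK inhibition, seeded at 500 per well onto compound-containing plates.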
# [3] = Quantitative highthroughput screen to assess conditional lethalithy of P12 Ichikawa cells grown in RPMI1640 with dialyzed fetal bovine serum (RPMI+ds) (AID 1963880); conditions: Potency: P12-Ichikawa viability; note: nearly all actives have a fitted effect of over 35% in size
# In short: (§1)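 Each medium arm—HPLM with 10% dialyzed FBS, or RPMI1640 with 5 mM glucose and 10% untreated or dialyzed FBS—was screened against an 11-point, 3-fold compound titration for 48 h at 37 °C, with CellTiter-Glo luminescence as endpoint.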
# [4] = Quantitative highthroughput screen to assess conditional lethalithy of SEM cells grown in RPMI1640 with dialyzed fetal bovine serum (RPMI+ds) (AID 1963884); note: nearly all actives have a fitted effect of over 35% in size;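 for Viability: 100% = DMSO control wells and 0% = empty wells without cells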
# In short: as §1
# [5] = Cellular viability qHTS for adrenocortical cancer (ACC) cell line SW-13 (AID 1963989); conditions: SW-13 ACC cells viability, CellTiter-Glo, 48 h; activity (max response): stronger effect = lower value; note: nearly all actives have a fitted effect of over 65% in size;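 for activity (max response): cells grown in serum-free medium with ITS supplement; % is set by controls: 0 for no effect and ±100 for the full control effect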
# In short: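 SW-13 cells in ITS-supplemented serum-free DMEM were plated overnight, then exposed for 48 h at 37C to compound titrations (up to 46 uM final). Viability was read by CellTiter-Glo luminescence; four-parameter logistic fits gave IC50 and efficacy.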
# [6] = Cellular viability qHTS for adrenocortical cancer (ACC) cell line NCI-H295R (AID 1963990); conditions: CellTiter-Glo ATP luminescence, 48 h; activity change, negative = viability loss: at 46.1 µM (top of the series); note: nearly all actives have a fitted effect of over 60% in size;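 for activity change, negative = viability loss: 0% = DMSO only wells and -100% = full killing with cytotoxic reference compound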
# In short: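 Luminescent ATP read-out (CellTiter-Glo, 20 min RT) after 48 h drug exposure of NCI-H295R cells; a titration up to 46 uM final. Data normalized to doxorubicin (100% inhibition) and DMSO (0%); 4-parameter fit gives IC50, max response.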
# [7] = Quantitative highthroughput screen to assess conditional lethalithy of P12 Ichikawa cells grown in RPMI1640 with untreated serum (RPMI+s) (AID 1963881); conditions: Potency: viability; note: nearly all actives have a fitted effect of over 35% in size;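 for Viability: 100% = DMSO wells and 0% = empty wells without cells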
# In short: as §1
# [8] = Quantitative highthroughput screen to assess conditional lethalithy of SEM cells grown in Human Plasma-Like Medium with dialyzed fetal bovine serum (HPLM+ds) (AID 1963882); note: nearly all actives have a fitted effect of over 35% in size
# In short: as §1
# [9] = Quantitative highthroughput screen to assess conditional lethalithy of NOMO1 cells grown in RPMI1640 with untreated serum (RPMI+s) (AID 1963876); note: nearly all actives have a fitted effect of over 35% in size
# In short: as §1
# [10] = Quantitative highthroughput screen to assess conditional lethalithy of NOMO1 cells grown in Human Plasma-Like Medium with dialyzed fetal bovine serum (HPLM+ds) (AID 1963878); note: nearly all actives have a fitted effect of over 35% in size
# In short: as §1
# [11] = Quantitative highthroughput screen to assess conditional lethalithy of P12 Ichikawa cells grown in Human Plasma-Like Medium with dialyzed fetal bovine serum (HPLM+ds) (AID 1963879); conditions: Potency: viability; note: nearly all actives have a fitted effect of over 35% in size
# In short: as §1
# [12] = Quantitative highthroughput screen to assess conditional lethalithy of SEM cells grown in RPMI1640 with unreated serum (RPMI+s) (AID 1963883); note: nearly all actives have a fitted effect of over 35% in size;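 for Viability: 100% = DMSO wells and 0% = empty wells without cells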
# In short: as §1
# Potency is the fitted concentration of half-maximal effect; tags give direction and shape of the fitted curve.
smiles,measurement,setting,value
NC1=NC(=O)N2CC12 (stereo not drawn),Potency,[1],"inconclusive: 13.2 µM [cytotoxic, partial curve]"
same,Potency,[2],"inconclusive: 11.8 µM [cytotoxic, full curve, poor fit]"
same,Potency,[3],active: 6.62 µM
same,Potency,[4],active: 2.96 µM
same,activity (max response),[5],inactive: -7.87%
same,Potency,[6],inactive
COc1ccc2c(c[n+](C)c3c4cc5c(cc4ccc23)OCO5)c1OC,Potency,[1],"inconclusive: 2.95 µM [cytotoxic, full curve, poor fit]"
same,Potency,[2],"inconclusive: 2.95 µM [cytotoxic, full curve, poor fit]"
same,Potency,[7],active: 11.8 µM
same,Potency,[8],active: 14.8 µM
same,Potency,[5],"inconclusive: 6.31 µM [cytotoxic, full curve, poor fit]"
same,Potency,[6],"inconclusive: 7.94 µM [cytotoxic, full curve, poor fit]"
C[C@@H]1C[C@@H]([C@H](O)CC2CC(=O)NC(=O)C2)C(=O)[C@@H](C)C1,Potency,[1],active: 376 nM and active: 417 nM
same,Potency,[2],active: 841 nM and active: 590 nM
same,Potency,[7],active: 0.264 µM
same,Potency,[5],active: 1.84 µM and active: 1.78 µM
same,Potency,[6],active: 920 nM and active: 1 µM
CC1(N2CCC(n3c([C@@H]4CCCNC4)nc4ccccc43)CC2)CCCCCCC1,Potency,[1],"active: 6.51 µM and inconclusive: 5.9 µM [cytotoxic, full curve]"
same,Potency,[2],active: 9.2 µM and active: 7.42 µM
same,Potency,[9],"inconclusive: 20.9 µM [cytotoxic, partial curve]"
same,Potency,[10],active: 13.2 µM
same,Potency,[11],"inconclusive: 18.7 µM [cytotoxic, partial curve]"
same,Potency,[3],active: 13.2 µM
same,Potency,[7],"inconclusive: 14.8 µM [cytotoxic, partial curve]"
same,Potency,[12],inactive
same,Potency,[4],inactive
same,Potency,[6],active: 17.8 µM
O=C(O)CNC(=O)c1c(O)c2ccccc2n(Cc2ccccc2)c1=O,Potency,[1],inactive
same,Potency,[2],"inconclusive: 26.3 µM [cytotoxic, partial curve, poor fit]"
same,Potency,[11],"inconclusive: 33.2 µM [cytotoxic, single point]"
same,Potency,[3],"inconclusive: 37.2 µM [cytotoxic, single point]"
same,Potency,[12],inactive
O=P1(NCCCl)OCCCN1CCCl (stereo not drawn),Potency,[1],inactive
same,Potency,[2],inactive
same,Potency,[10],"inconclusive: 37.2 µM [cytotoxic, single point]"
same,Potency,[11],"inconclusive: 11.8 µM [cytotoxic, single point]"
same,Potency,[7],inactive
same,Potency,[8],active: 18.7 µM
same,Potency,[12],active: 14.8 µM
CCO/N=C(\CC)C1=C(O)CC(c2c(C)cc(C)cc2C)CC1=O (stereo not drawn),Potency,[1],"inconclusive: 21.7 µM [cytotoxic, partial curve]"
same,Potency,[2],"inconclusive: 24.3 µM [cytotoxic, partial curve]"
same,Potency,[5],"inconclusive: 56.2 µM [cytotoxic, partial curve, poor fit]"
C[CH2][Hg][S]c1ccccc1C(=O)O,Potency,[1],"inconclusive: 33.5 µM [cytotoxic, single point]"
same,Potency,[2],inactive
same,Potency,[5],active: 2.59 µM
C/C1=C/C[C@@H](/C(C)=C/c2csc(C)n2)OC(=O)C[C@H](O)C(C)(C)C(=O)[C@H](C)[C@@H](O)[C@@H](C)CCC1,Potency,[1],active: 0.0332 µM
same,Potency,[2],active: 0.0332 µM
same,Potency,[5],"inconclusive: 0.0631 µM [cytotoxic, full curve, poor fit]"
CC[C@H]1C[C@@H]2C[C@H]3c4[nH]c5ccc(OC)cc5c4CCN(C2)[C@@H]13,Potency,[1],"inconclusive: 30 µM [cytotoxic, partial curve]"
same,Potency,[2],"inconclusive: 47.6 µM [cytotoxic, partial curve]"
same,Potency,[5],"inconclusive: 31.6 µM [cytotoxic, single point]"
CCNC(=O)CC1N=C(c2ccc(Cl)cc2)c2cc(OC)ccc2-n2c(C)nnc21 (stereo not drawn),Potency,[1],active: 14.8 µM and inactive and active: 517 nM
same,Potency,[2],active: 8.33 µM and inactive and active: 517 nM
same,Potency,[12],"inconclusive: 33.2 µM [cytotoxic, partial curve, poor fit]"
CC(=O)c1c(O)c(C)c(O)c(Cc2c(O)c3c(c(C(=O)/C=C/c4ccccc4)c2O)OC(C)(C)C=C3)c1O,Potency,[1],"inconclusive: 16.4 µM [cytotoxic, partial curve] and inconclusive: 14.8 µM [cytotoxic, partial curve]"
same,Potency,[2],"inconclusive: 4.68 µM [cytotoxic, full curve]"
same,activity (max response),[5],inactive: -2.92%
O=S(=O)(c1ccc(Cl)cc1)c1ccc(Cl)cc1,Potency,[1],"inconclusive: 30.9 µM [cytotoxic, partial curve]"
same,Potency,[2],"inconclusive: 24.6 µM [cytotoxic, partial curve]"
same,Potency,[5],"inconclusive: 39.8 µM [cytotoxic, single point]"
C[C@@H]1CN(Cc2ccc(F)cc2)CCN1C(=O)COc1ccc(Cl)cc1NC(N)=O,Potency,[1],active: 0.934 µM
same,Potency,[2],active: 0.82 µM
same,Potency,[5],active: 5.01 µM

# Source: PubChem BioAssay (NCATS)
